The supplement of paper PMC8728848
This is one part of the list.

Columns and labels:
Test in all cases: glycan array binding signal (z-score within array); higher = stronger binding
Conditions in all cases: glycan notation: IUPAC condensed, linker removed
[1] = target: Gal(b1-3)GlcNAc(b1-6)GalNAc
Procedure, shortened: (§1)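 Arrays were curated from the Consortium for Functional Glycomics database, 3228 in total, and kept only where the protein sequence was available. Binding is expressed as a within-array Z-score. This score was averaged across arrays of the same protein sequence at different concentrations or buffers and across linkers, and negative values can be read as non-binding.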

[2] = target: Gal(b1-3)GlcNAc(b1-6)[Gal(b1-3)]GalNAc
Procedure, shortened: as §1

Gal(b1-3)GlcNAc6S = target: Gal(b1-3)GlcNAc6S
Procedure, shortened: as §1

[3] = target: Gal(b1-3)[Fuc(a1-4)]GlcNAc
Procedure, shortened: as §1

[4] = target: Gal(b1-3)[Fuc(a1-4)]GlcNAc(b1-2)Man
Procedure, shortened: as §1

[5] = target: Gal(b1-3)[Fuc(a1-4)]GlcNAc(b1-2)Man(a1-3)[Gal(b1-3)[Fuc(a1-4)]GlcNAc(b1-2)Man(a1-6)]Man(b1-4)GlcNAc(b1-4)[Fuc(a1-6)]GlcNAc
Procedure, shortened: as §1

[6] = target: Gal(b1-3)[Fuc(a1-4)]GlcNAc(b1-3)Gal(b1-3)[Fuc(a1-4)]GlcNAc
Procedure, shortened: as §1

[7] = target: Gal(b1-3)[Fuc(a1-4)]GlcNAc(b1-3)Gal(b1-4)[Fuc(a1-3)]GlcNAc
Procedure, shortened: as §1

[8] = target: Gal(b1-3)[Fuc(a1-4)]GlcNAc(b1-6)GalNAc
Procedure, shortened: as §1

[9] = target: Gal(b1-3)[GlcNAc(b1-6)]GalNAc
Procedure, shortened: as §1

[10] = target: Gal(b1-3)[Neu5Ac(a2-6)]GalNAc
Procedure, shortened: as §1

[11] = target: Gal(b1-3)[Neu5Ac(a2-6)]GlcNAc(b1-4)Gal(b1-4)Glc
Procedure, shortened: as §1

[12] = target: Gal(b1-3)[Neu5Ac(b2-6)]GalNAc
Procedure, shortened: as §1

Gal(b1-4)Gal = target: Gal(b1-4)Gal
Procedure, shortened: as §1

[13] = target: Gal(b1-4)GalNAc(a1-3)[Fuc(a1-2)]Gal(b1-4)GlcNAc
Procedure, shortened: as §1

[14] = target: Gal(b1-4)GalNAc(b1-3)[Fuc(a1-2)]Gal(b1-4)GlcNAc
Procedure, shortened: as §1

Gal(b1-4)Glc = target: Gal(b1-4)Glc
Procedure, shortened: as §1

Gal(b1-4)Glc6S = target: Gal(b1-4)Glc6S
Procedure, shortened: as §1

Gal(b1-4)GlcNAc = target: Gal(b1-4)GlcNAc
Procedure, shortened: as §1

[15] = target: Gal(b1-4)GlcNAc(a1-6)Gal(b1-4)GlcNAc
Procedure, shortened: as §1

Gal(b1-4)GlcNAc(b1-2)Man = target: Gal(b1-4)GlcNAc(b1-2)Man
Procedure, shortened: as §1

[16] = target: Gal(b1-4)GlcNAc(b1-2)Man(a1-3)Man(b1-4)GlcNAc(b1-4)GlcNAc
Procedure, shortened: as §1

B1: Sebin2 (Coprinopsis cinerea), A8PE78 (protein)
chain: MTTPFYAYCHNVQDDNTWRLGLVFANRSTADEWWRAISEATSSIPITKSITRVTPQYYTHDIRVWNMYNFFVDGNIKSISDKFRGRLFITLEYDRSGRGVSVFPPLHIVDHVSGNWYYIRSKTAPHLFWFYDETRNAIYASKEKRTRFKVSIRNPSPQTPKDAIMINSDDVVIHIKESLYVGVDSYLGHIIPTRAYRTFKFGELEGGAIAGIEVAENAEERCSSTFDGASLYFVGPDSSSPGEPWELV
glycan array binding signal (z-score) [1]: 0.139 | glycan array binding signal (z-score) [2]: -0.041 | glycan array binding signal (z-score) (Gal(b1-3)GlcNAc6S): -0.154 | glycan array binding signal (z-score) [3]: -0.347 | glycan array binding signal (z-score) [4]: 0.366 | glycan array binding signal (z-score) [5]: 0.213 | glycan array binding signal (z-score) [6]: -0.426 | glycan array binding signal (z-score) [7]: -0.4 | glycan array binding signal (z-score) [8]: 0.228 | glycan array binding signal (z-score) [9]: -0.208 | glycan array binding signal (z-score) [10]: -0.371 | glycan array binding signal (z-score) [11]: -0.295 | glycan array binding signal (z-score) [12]: -0.199 | glycan array binding signal (z-score) (Gal(b1-4)Gal): 0.383 | glycan array binding signal (z-score) [13]: -0.557 | glycan array binding signal (z-score) [14]: -0.219 | glycan array binding signal (z-score) (Gal(b1-4)Glc): -0.336 | glycan array binding signal (z-score) (Gal(b1-4)Glc6S): 0.512 | glycan array binding signal (z-score) (Gal(b1-4)GlcNAc): -0.292 | glycan array binding signal (z-score) [15]: -0.468 | glycan array binding signal (z-score) (Gal(b1-4)GlcNAc(b1-2)Man): -0.082 | glycan array binding signal (z-score) [16]: -0.087
